In PubChem BioAssay AID504339 (National Center for Advancing Translational Sciences (NCATS), 2011):
Several values for one entry are separate records, joined by “and”; a condition that tells them apart may be missing. Equal entries are not always repeated. In all, about 390,000 compounds went through this assay and about 17,000 (4.4%) were called active. Inconclusive results, whose numbers are uncertain, are shown with a selection of clear calls. Calls come from the whole dose curve; as a rule, active = well fitted inhibition curve with a large enough effect; inconclusive = small, poorly fitted or top-dose-only effect; inactive = no such curve, though single readings can be large or run the other way. Potencies beside an inconclusive call are fits to weak or partial responses and may not hold up.

These compounds were tested against Lysine-specific demethylase 4A (Homo sapiens) (UniProt O75164) (assay: qHTS Assay for Inhibitors of JMJD2A-Tudor Domain). Conditions: AlphaScreen JMJD2A-Tudor / H3K4me3 peptide binding; activity change, negative = inhibition: at 114 µM (top of the series).
% is set by controls: 0 for no effect and ±100 for the full control effect; potency is the fitted concentration of half-maximal effect; tags give direction and shape of the fitted curve.
Note: nearly all actives have a fitted effect of over 50% in size.

Chain of UniProt O75164 (O75164 whole entry, looked up, the tested form may be a part): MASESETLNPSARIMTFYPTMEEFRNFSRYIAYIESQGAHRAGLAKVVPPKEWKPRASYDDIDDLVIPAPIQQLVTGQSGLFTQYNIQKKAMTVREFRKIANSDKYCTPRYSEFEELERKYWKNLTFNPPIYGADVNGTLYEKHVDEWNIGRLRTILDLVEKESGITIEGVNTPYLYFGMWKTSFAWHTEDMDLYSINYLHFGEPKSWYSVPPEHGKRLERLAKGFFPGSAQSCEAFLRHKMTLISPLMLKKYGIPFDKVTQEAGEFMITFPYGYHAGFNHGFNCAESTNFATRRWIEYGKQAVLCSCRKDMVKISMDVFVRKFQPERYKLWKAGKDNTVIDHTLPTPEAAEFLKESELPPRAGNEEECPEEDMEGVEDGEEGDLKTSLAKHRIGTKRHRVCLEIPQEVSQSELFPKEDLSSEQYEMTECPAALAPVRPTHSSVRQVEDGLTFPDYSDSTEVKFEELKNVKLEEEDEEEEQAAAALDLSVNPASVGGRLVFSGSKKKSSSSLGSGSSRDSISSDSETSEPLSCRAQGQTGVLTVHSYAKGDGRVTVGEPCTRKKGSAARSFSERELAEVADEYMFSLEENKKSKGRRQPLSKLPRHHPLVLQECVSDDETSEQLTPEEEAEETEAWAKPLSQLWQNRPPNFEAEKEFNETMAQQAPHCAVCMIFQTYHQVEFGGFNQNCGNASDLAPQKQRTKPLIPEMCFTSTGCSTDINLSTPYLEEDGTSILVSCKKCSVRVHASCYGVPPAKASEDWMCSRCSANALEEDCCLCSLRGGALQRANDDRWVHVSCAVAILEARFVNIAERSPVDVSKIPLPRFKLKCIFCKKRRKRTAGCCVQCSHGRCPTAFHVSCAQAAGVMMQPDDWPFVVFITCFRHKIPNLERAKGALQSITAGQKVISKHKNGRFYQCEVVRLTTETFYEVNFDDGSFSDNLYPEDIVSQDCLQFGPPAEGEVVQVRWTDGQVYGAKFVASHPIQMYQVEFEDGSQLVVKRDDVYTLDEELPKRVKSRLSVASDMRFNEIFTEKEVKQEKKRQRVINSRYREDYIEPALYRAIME

Row | Structure (SMILES) | Potency | activity change, negative = inhibition
1 | Cc1ccc(-c2nc3sc(C(N)=O)c(N)c3c3c2CCCC3)cc1 | inactive | –
2 | CCC(=O)NC(c1ccc(N(C)C)cc1)c1c(O)ccc2ccccc12 (stereo not drawn) | active: 50.1 µM | –
3 | O=C(Cn1c(=O)oc2cc(S(=O)(=O)NCc3ccccc3)ccc21)NCc1ccccc1Cl | inactive | –
4 | C[C@]12c3[nH]c4cc(-c5ccco5)ccc4c3CCN1C(=O)[C@@H](CC(=O)NCc1ccco1)C[C@@H]2C(=O)N1CCCCC1 | inconclusive: 50.1 µM [inhibitor, partial curve] | –
5 | Cc1ccc2nc(N/N=C/c3ccco3)cc(C)c2c1 | inconclusive: 63.1 µM [inhibitor, partial curve, poor fit] | –
6 | O=C(O)CCCCCNCc1c(Cl)cccc1Cl | inactive | –
7 | C/C(N)=C(/C#N)C(=O)COC(=O)c1cc(C)n(-c2ccc(F)cc2)c1C | inconclusive: 63.1 µM [inhibitor, partial curve, poor fit] | –
8 | O=C(O)CCc1ccc(-c2ccccc2)n1-c1cccc(O)c1 | inconclusive: 89.1 µM [inhibitor, partial curve] | –
9 | CN(C)CCCN(C(=O)c1ccc(S(=O)(=O)N2CCc3ccccc3C2)cc1)c1nc2c(F)cc(F)cc2s1 | inconclusive: 44.7 µM [inhibitor, partial curve] | –
10 | Cc1cccc(NC(=O)C2SC(=Nc3c(C)cccc3C)C(C(=O)N3CCOCC3)=C2N)c1 (stereo not drawn) | inconclusive: 50.1 µM [inhibitor, partial curve] | –
11 | COC(=O)c1[nH]c2cc(C)ccc2c1NC(=O)CN1CCCc2ccccc21 | inconclusive: 44.7 µM [inhibitor, partial curve] | –
12 | O=C(Nc1ccc(Nc2ccccc2)cc1)c1ccco1 | inconclusive: 50.1 µM [inhibitor, partial curve] | –
13 | Cc1ccc(-c2nnn(CC(=O)N(CC3CCCO3)C(C(=O)NC3CCCC3)c3ccc(F)cc3)n2)o1 (stereo not drawn) | inactive | –
14 | CCc1ccc2[nH]c(C(=O)Nc3ccc4c(c3)OCO4)cc2c1 | inconclusive: 44.7 µM [inhibitor, partial curve, poor fit] | –
15 | Oc1[nH]c(=S)sc1C=C1N=c2ccccc2=N1 | inactive | –
16 | Cc1cc(NC(=O)CN2C(=O)NC3(CCCCCC3)C2=O)ccc1Br | inactive | –
17 | O=C(c1cc(Cl)nc2ccccc12)N1CCN(S(=O)(=O)c2cccc(C(F)(F)F)c2)CC1 | inactive | –
18 | Nc1ccc(C(=O)Nc2cccc(NC(=O)c3ccc(N)cc3)c2)cc1 | inconclusive: 15.8 µM [inhibitor, full curve, poor fit] | –
19 | Cc1c(-c2n[nH]c(=S)n2-c2ccc(C(F)(F)F)cc2)nnn1-c1ccccc1 | inconclusive: 89.1 µM [inhibitor, single point] | –
20 | COc1ccc(-c2cc(-c3ccco3)[nH]c(=O)c2C#N)cc1 | inconclusive: 44.7 µM [inhibitor, partial curve] | –
21 | COc1cc(C(=O)NC(=S)Nc2ccc([N+](=O)[O-])cc2C)cc(OC)c1OC | inconclusive: 79.4 µM [inhibitor, single point] | –
22 | O=C(NCCN1CCc2ccccc2C1)Nc1ccc([N+](=O)[O-])cc1 | inconclusive: 25.1 µM [inhibitor, partial curve] | –
23 | O=C(C[n+]1ccccc1)N/N=C/c1ccc(O)cc1 | inconclusive: 50.1 µM [inhibitor, partial curve] | –

Row | Structure (SMILES) | Potency | activity change, negative = inhibition
24 | S=c1[nH]nc(-c2cccc3ccccc23)n1-c1cccnc1 | active: 20 µM | –
25 | COC(=O)CCCC1=CC2=CC(=O)C(C)(OC(=O)c3cccs3)C(=O)C2=CN1CCc1c[nH]c2ccccc12 (stereo not drawn) | inconclusive: 50.1 µM [inhibitor, partial curve] | –
26 | CC(C)CNC(=O)C(=O)NNC(=O)C1CCCCC1 | inconclusive: 31.6 µM [inhibitor, partial curve] | –
27 | N#Cc1c(=O)c2nc(NCc3ccccc3)ncc2n2ccccc12 | active: 50.1 µM | –
28 | Cc1ccc(SCCOCCN2CCc3ccccc3C2)cc1 | active: 39.8 µM | –
29 | CCN(CC)c1ccc(NC(=O)c2cnn(CC)c2)cc1 | inconclusive: 79.4 µM [inhibitor, partial curve] | –
30 | CCc1nc(CN2CCCC(C(=O)c3ccc4c5c(cccc35)CC4)C2)c(C)[nH]1 (stereo not drawn) | inconclusive: 39.8 µM [inhibitor, partial curve] | –
31 | O=C(O)COc1ccc(-c2nccc(-c3ccccn3)n2)cc1 | – | inactive: -33.8% [at 11.4 µM]
32 | O=S(=O)(Nc1cccc(-c2cn3c(n2)SCC3)c1)c1ccccc1 | inconclusive: 63.1 µM [inhibitor, partial curve, poor fit] | –
33 | CN1CCN(c2ccc(NC(=O)c3cc(Cl)c4c(c3)OCCO4)cc2)CC1 | inconclusive: 44.7 µM [inhibitor, partial curve, poor fit] | –
34 | CCOc1ccc(-n2cc(C(=O)Nc3cccc(C)n3)c3cc(OC)c(OC)cc3c2=O)cc1 | inconclusive: 79.4 µM [inhibitor, partial curve] | –
35 | COc1cccc(CNc2ccc3c(c2)ncn3C(C)C)c1OC | inconclusive: 44.7 µM [inhibitor, full curve] | –
36 | CCOC(=O)c1ccc(NC(=O)C(CC)Sc2nc3ncccc3[nH]2)cc1 (stereo not drawn) | inactive | –
37 | CCC1CCCCN1C(=S)NC(=O)c1ccc([N+](=O)[O-])cc1 (stereo not drawn) | inconclusive: 50.1 µM [inhibitor, single point] | –
38 | COC(=O)c1ccccc1-c1ccc(/C=C2\C(=O)N(c3ccccc3)N=C2c2ccccc2)o1 | inconclusive: 44.7 µM [inhibitor, partial curve, poor fit] | –
39 | COC(=O)c1ccccc1S(=O)(=O)N1CCn2cccc2C1C (stereo not drawn) | inconclusive: 63.1 µM [inhibitor, partial curve, poor fit] | –
40 | CC(=O)NC(c1ccc(Cl)cc1Cl)c1ccc2cccnc2c1O (stereo not drawn) | active: 28.2 µM | –
41 | Cc1c(NCc2cc(Cl)cc(Cl)c2O)c(=O)n(-c2ccccc2)n1C | inconclusive: 50.1 µM [inhibitor, partial curve, poor fit] | –
42 | O=[N+]([O-])c1ccc(Cl)cc1N1CCCCC1 | inconclusive: 12.6 µM [inhibitor, full curve] | –
43 | CCn1c(C(=O)N2CCC(C(=O)NCCc3ccccc3)CC2)cc2sccc21 | inactive | –
44 | COc1cccc(N2CCN(c3ccc(N4C(=O)CCC4=O)cc3[N+](=O)[O-])CC2)c1 | inconclusive: 31.6 µM [inhibitor, partial curve] | –
45 | Cc1ccc(S(=O)(=O)NC(C(=O)Oc2ccc3c(C)c(Cl)c(=O)oc3c2)c2ccccc2)cc1 (stereo not drawn) | inactive | –
46 | COc1ccc(Cc2n[nH]c(=S)n2NC(=O)Nc2ccc(C)cc2)cc1 | inconclusive: 79.4 µM [inhibitor, partial curve] | –

Row | Structure (SMILES) | Potency | activity change, negative = inhibition
47 | FC(F)Oc1ccc(-c2csc(NNC3=NCCCCC3)n2)cc1 | inconclusive: 3.98 µM [inhibitor, single point] | –
48 | OCn1ncn(-c2ccccc2)c1=S | active: 35.5 µM | –
49 | Cc1[nH]c(N)nc(=S)c1CCCNc1ccccc1 | active: 50.1 µM | –
50 | CCCCN(CC)CCNC(=O)c1cc2c(-c3ccc(Cl)cc3)nn(C)c2s1 | inconclusive: 11.2 µM [inhibitor, partial curve, poor fit] and inconclusive: 39.8 µM [inhibitor, partial curve] | –
51 | CCOC(=O)c1cc2occc2n1CC(=O)N1CCCc2ccccc21 | inconclusive: 50.1 µM [inhibitor, partial curve] | –
52 | CC(=O)Nc1ccc(SC[C@H](Cc2ccccc2)N2CC[C@@H](C(C)(C)C)CCC2=O)cc1 | inconclusive: 70.8 µM [inhibitor, partial curve, poor fit] | –
53 | CCCOc1ccc(C2/C(=C(\O)c3c(C)[nH]c(C(=O)OC)c3C)C(=O)C(=O)N2CCN(C)C)cc1 (stereo not drawn) | inconclusive: 79.4 µM [inhibitor, partial curve] | –
54 | O=C(N/N=C1\NC(=O)C(CO)(CO)S1)c1ccccc1 | inconclusive: 89.1 µM [inhibitor, single point] | –
55 | CCOC(=O)C1(Cc2cccc(OC)c2)CCN(Cc2cccn2-c2nccs2)CC1 | inconclusive: 50.1 µM [inhibitor, partial curve] | –
56 | C=CCNC(C(=O)Nc1cccc(OC)c1)c1ccccc1 (stereo not drawn) | inactive | –
57 | O=C(O)c1cc(-c2ccco2)nc2cc3ccccc3cc12 | inconclusive: 35.5 µM [inhibitor, single point] | –
58 | COc1ccccc1NC(=O)CSc1nnc(C)s1 | inactive | –
59 | COc1ccc(OC)c(NC(=O)c2c(NCc3ccc(C)o3)sc3c2CCC(C)C3)c1 (stereo not drawn) | active: 31.6 µM | –
60 | CCSc1nnc(-c2cc(Br)ccc2N)c(=O)[nH]1 | inactive | –
61 | Cc1ccc2c(=O)cc(CSc3ccccc3)[nH]c2c1C | inactive | –
62 | CCn1c(SCC(=O)Nc2ccc3c(c2)oc2ccccc23)nnc1-c1ccc(N)cc1 | inconclusive: 44.7 µM [inhibitor, partial curve] | –
63 | Cc1ccc(-c2nn(-c3ccccc3)cc2/C=N/O)cc1 | inconclusive: 63.1 µM [inhibitor, partial curve] | –
64 | CCCc1cc(Nc2ccccc2OCC)n2ncnc2n1 | inconclusive: 89.1 µM [inhibitor, single point] | –
65 | COc1ccccc1C(=O)NNC(=S)NC(=O)c1cc(OC)c(OC)c(OC)c1 | inactive | –
66 | COC(=O)[C@H](CCSC)NC(=O)Cn1cc(C)c(=O)[nH]c1=O | inactive | –
67 | Nc1c(C(=O)Nc2ccccc2)sc2nc3c(c(-c4ccco4)c12)CCC3 | inconclusive: 3.55 µM [inhibitor, single point] | –
68 | O/N=C/Cc1[nH]c2ccccc2c1-c1ccccc1 | inconclusive: 100 µM [inhibitor, single point] | –
